# From publication PMC4336329 (PLoS ONE, 2015)
# Among all 310,000 compounds or so, about 14,000 (4.5%) showed an effect of 50% or more. The effect is printed as a negative number. The list shows a part of the results.
# Target: human ether-à-go-go-related gene (hERG) potassium channel (human, UniProt Q12809)
# Assay: primary screen, population patch clamp on CHO cells stably expressing hERG
# 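Note: peak tail current of the secondary pulse compared with the same well before compound.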
# Chain of human ether-à-go-go-related gene (hERG) potassium channel (Q12809 whole entry, looked up): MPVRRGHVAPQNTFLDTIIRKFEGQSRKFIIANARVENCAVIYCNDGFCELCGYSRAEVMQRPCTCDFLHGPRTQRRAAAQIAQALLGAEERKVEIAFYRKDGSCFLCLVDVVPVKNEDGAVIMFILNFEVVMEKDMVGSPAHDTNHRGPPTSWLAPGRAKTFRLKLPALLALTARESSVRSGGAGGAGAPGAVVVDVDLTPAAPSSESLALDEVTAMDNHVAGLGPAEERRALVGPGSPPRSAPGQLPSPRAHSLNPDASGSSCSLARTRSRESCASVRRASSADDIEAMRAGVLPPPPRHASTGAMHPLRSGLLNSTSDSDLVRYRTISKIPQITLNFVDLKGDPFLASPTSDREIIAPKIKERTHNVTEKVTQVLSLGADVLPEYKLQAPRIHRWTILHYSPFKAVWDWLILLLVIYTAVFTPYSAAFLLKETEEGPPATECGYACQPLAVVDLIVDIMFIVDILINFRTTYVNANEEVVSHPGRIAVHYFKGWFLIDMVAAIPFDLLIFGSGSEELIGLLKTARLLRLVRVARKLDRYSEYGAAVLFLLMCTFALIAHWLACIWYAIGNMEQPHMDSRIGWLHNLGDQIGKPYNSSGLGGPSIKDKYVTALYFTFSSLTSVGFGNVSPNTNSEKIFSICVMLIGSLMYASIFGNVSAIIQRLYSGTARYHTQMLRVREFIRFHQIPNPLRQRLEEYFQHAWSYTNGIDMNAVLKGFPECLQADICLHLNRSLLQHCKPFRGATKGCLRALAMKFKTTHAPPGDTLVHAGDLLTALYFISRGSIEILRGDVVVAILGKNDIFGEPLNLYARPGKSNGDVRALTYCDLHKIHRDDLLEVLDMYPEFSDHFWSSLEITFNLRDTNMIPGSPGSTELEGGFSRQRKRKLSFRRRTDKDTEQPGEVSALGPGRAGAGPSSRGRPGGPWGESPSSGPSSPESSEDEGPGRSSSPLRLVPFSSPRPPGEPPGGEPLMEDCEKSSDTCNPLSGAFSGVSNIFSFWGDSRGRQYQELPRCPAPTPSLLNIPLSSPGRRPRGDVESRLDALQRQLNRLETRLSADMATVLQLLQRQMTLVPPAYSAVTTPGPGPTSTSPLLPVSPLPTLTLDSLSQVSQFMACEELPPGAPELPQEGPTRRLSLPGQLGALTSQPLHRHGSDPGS
row,SMILES,"hERG current change (%, negative = inhibition) at 10uM [%]"
1,COc1cccc(NC(=O)c2nc(SC)ncc2Cl)c1,9.72
2,CCCN1C(=O)C(NS(=O)(=O)c2ccc(N)cc2)(C(F)(F)F)C(C(=O)OC)=C1C (stereo not drawn),10.1
3,Nc1ncnc(Nc2ccccn2)c1[N+](=O)[O-],5.96
4,COc1ccccc1CCC(=O)N1CCC(n2nccc2NC(=O)CC(C)C)CC1,-7.32
5,Cc1ccc2cc3cc(C(=O)NC4CCCCC4)oc3nc2c1,5.08
6,C[C@H](NC(=O)c1nc[nH]c1C(=O)NC1CC[NH2+]CC1)C(=O)OC(C)(C)C.[Cl-],12.1
7,COc1ccc(CCNC(=O)CCc2nnc(Cc3ccc4c(c3)OCO4)o2)cc1,-2.67
8,COc1ccc2c(c1)OC[C@H]1[C@H]2N2C(=O)CN(Cc3ccc(F)cc3)C(=O)[C@@]2(C)[C@H]1c1ccccc1,3.71
9,O=C(CSc1cnc2ccccc2n1)c1ccc(F)cc1,21.2
10,Cn1c(SCc2nc(-c3cccs3)no2)nnc1C1CCCCC1,-10
11,O=C(CCn1c(=O)c2sccc2n(Cc2cc(=O)n3ccccc3n2)c1=O)NCc1ccco1,-20.3
12,O=C(OCc1cccc([N+](=O)[O-])c1)c1cc2ccccc2oc1=O,20.7
13,COc1ccc(N2C(=O)CC(Cc3ccccc3OC)C2=O)cc1 (stereo not drawn),13.2
14,Cc1ccc(Cn2c(=S)[nH]c3ccccc3c2=O)cc1,13.2
15,O=C(NC1CCCCCC1)c1ccc(CS(=O)Cc2cccc(Cl)c2)o1 (stereo not drawn),-12.7
16,O=C(COC(=O)c1ccc(F)cc1)NCc1ccc(F)cc1,2.23
17,O=C(O)/C(=C\c1cccc(OCc2ccccc2)c1)c1ccc(F)cc1,3.19
18,O=C(NOC(=O)c1ccccc1)c1ccccc1,15
19,c1ccc2nc3c(nc2c1)CCc1nonc1-3,-12.1
20,O=[N+]([O-])c1ccc2[nH]c(O)c(N=NC(=S)Nc3cccnc3)c2c1,9.27
21,CN1CCN(Cc2c(O)ccc3occ(C(=O)c4ccccc4)c23)CC1,-39.3
22,CN1CCc2c(sc(NC(=O)Cc3ccc(F)cc3)c2C(N)=O)C1.Cl,0.15
23,Cc1nc(SCc2cccc(C(=O)O)c2)nc2c1CCCC2,11.4

row,SMILES,"hERG current change (%, negative = inhibition) at 10uM [%]"
1,COc1ccc2nc(NC(=O)C3CCCN(S(=O)(=O)c4cccc5nsnc45)C3)sc2c1 (stereo not drawn),-14.5
2,CCN(CC)CCCNC(=O)c1c(O)c2ccccc2n(Cc2ccccc2)c1=O.Cl,-63.8
3,CCSc1ncc(/C=N/Nc2ccc([N+](=O)[O-])cc2)n1C,6.72
4,Cc1ccccc1NC(=O)CC(=O)Nc1ccccc1C,19.6
5,Cc1ccccc1C(=O)Nc1cc(S(=O)(=O)N2CCCCC2)ccc1N1CCN(C)CC1,-37.4
6,O=C(c1ccccc1NS(=O)(=O)c1ccccc1[N+](=O)[O-])N1CCOCC1,16.3
7,Cc1cc(CN2CCCC(CNC(=O)c3ccc(F)cc3)C2)cc(C)c1O (stereo not drawn),-24.1
8,CCOc1ccc(S(=O)(=O)Nc2ccccc2C(=O)NCc2ccco2)cc1,-21.2
9,O=C(c1ccccc1)N1CCN(S(=O)(=O)c2ccccc2)CC1,-0.192
10,COc1ccccc1C(=O)Nc1ccccc1C(=O)NC1CCCCC1,-1.19
11,O=C(NC(=S)Nc1ccccc1O)c1cccnc1,18.2
12,CCCCSc1nc2sc3c(c2c(=O)n1-c1ccccc1)CCN(C)C3,-13.8
13,CCOC(=O)c1ccc(NC(=S)NC(=O)c2nn(CC)cc2Br)cc1,3.85
14,O=C(c1cc(Cl)ccc1Cl)N1CCc2ccccc21,-9.85
15,CCCCNC(=O)c1onc(CSc2ccccc2CC)c1C(=O)O,9.09
16,CCOCCCNc1nc2c(c(=O)n(C)c(=O)n2C)n1CCCc1ccccc1,-5.32
17,COc1cccc(CNC(=O)CCC2CCCN(C(=O)c3ccc(OC)c(F)c3)C2)c1 (stereo not drawn),-9.79
18,CCOc1ccc(N2C(=O)CC(n3ccc(C)n3)C2=O)cc1 (stereo not drawn),9.83
19,Cc1cc(CN(C)C(=O)c2cc(COc3ccc4ncccc4c3)on2)on1,-4.72
20,Cc1ccc(Cl)c(NC(=O)COC(=O)CNS(=O)(=O)/C=C/c2ccccc2)c1Cl,12
21,CCN(CC)c1cc2nonc2c2nonc12,-1.27
22,C=CCn1c(=NC(=O)C2CCCCC2)sc2cc(NC(C)=O)ccc21,-2.15
